According to US5760092A, “Allocolchinones and uses thereof” (Brandeis University, priority 1996, dated 1998):

System: HL-60 (TB) leukemia cells
Assay: cells
Details: Homo sapiens

`COc1cc2c(c(OC)c1OC)-c1ccc(OC)c(=O)cc1[C@@H](NC(C)=O)CC2` [Colchicine, reference compound] gave an activity at 100 µM (HL-60, read-out: Percent Growth, log10 conc -4.0) of -10%, an activity at 10 µM (HL-60, read-out: Percent Growth, log10 conc -5.0) of -24% and an activity at 1 µM (HL-60, read-out: Percent Growth, log10 conc -6.0) of -22%. The activity at 0.1 µM (HL-60, read-out: Percent Growth, log10 conc -7.0) was -5% and the activity at 0.01 µM (HL-60, read-out: Percent Growth, log10 conc -8.0) was 57%.
